Test results taken from PMC4336329 (PLoS ONE, 2015).
About 2,200 (0.71%) of roughly 310,000 compounds showed an effect of 50% or more. The effect is printed as a negative number. The list shows a part of the results.

What follows are molecules tested against human ether-à-go-go-related gene (hERG) potassium channel (human, UniProt Q12809) (assay: primary screen, population patch clamp on CHO cells stably expressing hERG).
Chain of human ether-à-go-go-related gene (hERG) potassium channel (Q12809 whole entry, looked up): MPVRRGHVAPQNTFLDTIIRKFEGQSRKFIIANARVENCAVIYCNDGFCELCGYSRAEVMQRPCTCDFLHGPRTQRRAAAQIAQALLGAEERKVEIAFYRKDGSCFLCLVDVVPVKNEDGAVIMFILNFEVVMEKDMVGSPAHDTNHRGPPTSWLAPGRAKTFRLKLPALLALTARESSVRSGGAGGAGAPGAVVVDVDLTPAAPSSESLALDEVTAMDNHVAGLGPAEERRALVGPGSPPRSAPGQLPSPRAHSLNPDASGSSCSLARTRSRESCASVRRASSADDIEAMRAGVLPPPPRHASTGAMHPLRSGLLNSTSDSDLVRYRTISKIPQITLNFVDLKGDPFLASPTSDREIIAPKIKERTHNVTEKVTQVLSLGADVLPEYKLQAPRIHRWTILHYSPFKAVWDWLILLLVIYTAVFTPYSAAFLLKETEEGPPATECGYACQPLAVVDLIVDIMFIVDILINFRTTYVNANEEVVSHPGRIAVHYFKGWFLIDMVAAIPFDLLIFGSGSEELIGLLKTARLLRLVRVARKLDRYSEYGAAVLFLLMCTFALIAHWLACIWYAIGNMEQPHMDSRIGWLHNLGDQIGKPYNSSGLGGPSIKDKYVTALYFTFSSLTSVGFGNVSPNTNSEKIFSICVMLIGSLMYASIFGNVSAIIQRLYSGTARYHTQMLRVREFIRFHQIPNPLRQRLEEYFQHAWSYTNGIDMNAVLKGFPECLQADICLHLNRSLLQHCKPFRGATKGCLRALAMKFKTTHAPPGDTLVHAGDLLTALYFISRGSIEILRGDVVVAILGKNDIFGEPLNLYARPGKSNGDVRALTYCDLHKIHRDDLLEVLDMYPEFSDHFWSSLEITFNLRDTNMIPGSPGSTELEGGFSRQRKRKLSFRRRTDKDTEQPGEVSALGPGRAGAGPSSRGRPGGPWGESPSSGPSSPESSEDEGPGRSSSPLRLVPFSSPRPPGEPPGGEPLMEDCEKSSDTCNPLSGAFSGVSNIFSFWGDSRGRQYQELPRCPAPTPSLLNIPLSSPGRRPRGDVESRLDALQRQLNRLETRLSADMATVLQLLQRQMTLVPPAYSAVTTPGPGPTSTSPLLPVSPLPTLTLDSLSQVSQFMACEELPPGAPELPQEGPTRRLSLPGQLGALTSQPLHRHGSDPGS

Row | Structure (SMILES) | hERG current change (%, negative = inhibition) at 1uM [%]
1 | CCOC(=O)c1ccc(Nc2nnc(C)c3ccccc23)cc1 | 2.96
2 | Cc1ccc2nc(SC(C)C(=O)Nc3cccc([N+](=O)[O-])c3)[nH]c2c1 (centres unmarked) | 6.02
3 | COc1ccc(CCNC(=O)C2CC(c3cc(C(F)(F)F)cc(C(F)(F)F)c3)=NO2)cc1 (centres unmarked) | 4.15
4 | CCn1c(O)c(N=NC(=S)NCC2CCCO2)c2ccccc21 (centres unmarked) | 9.68
5 | O=C(Cn1cnc2cc([N+](=O)[O-])ccc2c1=O)NCCc1ccc(Cl)cc1 | 0.659
6 | Cn1c(CC(=O)Nc2ccccc2F)nnc1SCC(=O)Nc1nccs1 | 15.2
7 | CN(C)S(=O)(=O)c1cccc(NC(=O)CSc2nc3c(cc2C#N)C(=O)CC(C)(C)C3)c1 | 7.99
8 | COc1ccc(CNC(=O)Cn2ncn3c(cc4ccccc43)c2=O)cc1 | 4.96
9 | COc1ccc(N(CCC(=O)Nc2ccccc2F)S(=O)(=O)c2ccc(C)cc2C)cc1 | 10.1
10 | Cc1c(OCC(=O)NCC2CCC(C(=O)O)CC2)ccc2c(-c3ccccc3)cc(=O)oc12 (centres unmarked) | 19
11 | CCOc1ccc(NC(=O)CC2S/C(=N/N=C3CCCCCC3)NC2=O)cc1 (centres unmarked) | 19.2
12 | Cc1ccc(NS(=O)(=O)c2cccs2)nc1 | -3.66
13 | CCN(C#N)c1nc(NC(C)C)nc(NC(C)(C)C)n1 | 11.7
14 | CC(C)Sc1nnc(SCC(=O)NCCCN2CCCC2=O)s1 | 4.41
15 | C=CCC1NS(=O)(=O)OC(CCc2ccccc2)C1O (centres unmarked) | 5.53
16 | COC(=O)c1sc(N2C(=O)C(O)=C(C(=O)c3ccc(C)o3)C2c2ccc([N+](=O)[O-])cc2)nc1C (centres unmarked) | 10.1
17 | CC1=NN(c2cccc(Cl)c2)C(=O)C12CC(C)=C(C)CS2 (centres unmarked) | 14.1
18 | CS(=O)(=O)N1CCN(C(=O)Nc2ccccc2)CC1 | 18.2
19 | O=C1c2cccc([N+](=O)[O-])c2C(=O)N1c1c[nH]c(=O)[nH]c1=O | 9.03
20 | O=C1CC(N2CCN(C3CCc4ccccc4C3)CC2)C(=O)N1c1ccccc1 (centres unmarked) | -42.7
21 | COc1ccc(C(C#N)c2nc3ccccc3nc2Cl)cc1 (centres unmarked) | 5.81
22 | COc1cc(CN2CCC(C(=O)NCCC(C)C)CC2)ccc1OCc1ccccc1.O=C(O)C(=O)O | -46.6
23 | Cc1ccc(C(=O)Nc2ccc(Cl)cc2C(F)(F)F)c(Cl)c1 | 2.52

Row | Structure (SMILES) | hERG current change (%, negative = inhibition) at 1uM [%]
24 | CCc1ccc(-c2cc3c(=O)n(CC(=O)NCc4ccccc4F)ncn3n2)cc1 | 10.3
25 | CCCCN(CC)S(=O)(=O)c1ccc(C(=O)Nc2nnc(COC)o2)cc1 | 7.62
26 | CC(C)(Oc1ccc(Cl)cc1)C(=O)NCc1n[nH]c(=O)c2ccccc12 | 0.988
27 | O=C(NC(NC(=S)Nc1cccc(C(=O)O)c1)C(Cl)(Cl)Cl)OCc1ccccc1 (centres unmarked) | 5.27
28 | COC(=O)c1c(C)c(C)nc(N)c1C#N | 11.8
29 | COc1cccc(C2=NOC(C(=O)Nc3ccc4c(c3)OCO4)C2)c1OC (centres unmarked) | 9.81
30 | COc1ccc(-c2cc(C(=O)N/N=C/c3cccnc3)c3ccccc3n2)cc1 | 5.72
31 | CCOC(=O)Cc1csc(SCC(=O)NC2CCCC(C)C2C)n1 (centres unmarked) | 7.88
32 | CCNc1nc(NCC)n2c(SCC(=O)Nc3ccc(F)cc3)nnc2n1 | 3.11
33 | C#CCn1c(=NC(=O)c2ccc(Br)s2)sc2cc(NC(C)=O)ccc21 | 2.71
34 | Cc1noc(C)c1C(=O)NC(C)c1ccc(Cl)cc1Cl (centres unmarked) | 7.73
35 | CCOC(=O)CNC(=O)CNC(=O)c1ccc(OC(C)C)cc1 | 11.7
36 | Cc1ccc(C2=CSC3=NS(=O)(=O)CCN23)cc1 | 6.7
37 | Cn1nnnc1SCC(=O)Nc1ccccc1-c1ccccc1 | 5.83
38 | COc1cccc(-n2cc(C(=O)NC(C)C)c3ccccc3c2=O)c1 | 13.8
39 | COc1ccc(-n2c(C)nnc2SCC(=O)NC2CC2)cc1 | 10.7
40 | O=C(O)C1=C[C@H](c2ccc(Br)cc2)C[C@H](OCCCCO)O1 | 6.21
41 | CN(CC(=O)N1CCCCC1)S(=O)(=O)c1cccc2nsnc12 | 10.8
42 | O=c1cc(-c2ccccc2Cl)oc2c(NS(=O)(=O)c3cccs3)ccc(O)c12 | -5.83
43 | N#CC1=C(N)OC2=C(CCc3ccccc32)C1c1ccccc1Cl (centres unmarked) | 19
44 | CC(=O)Nn1cc2c(=O)n(C)c(=O)n(C)c2c1 | -0.83
45 | COC(=O)c1ccccc1NC(=O)n1cc(C)cn1 | -2.41
46 | COc1cccc(N(C(=O)c2csnn2)C(C(=O)NC2CCCC2)c2ccccc2)c1 (centres unmarked) | 14.6

Row | Structure (SMILES) | hERG current change (%, negative = inhibition) at 1uM [%]
47 | CNC(=O)C(=O)NCCc1ccc(Cl)cc1 | 11.3
48 | Cc1cccc(CCNS(=O)(=O)c2ccc3c(c2)CCN3C(=O)CCC(=O)O)c1 | 19.2
49 | O=C(NC12CC3CC(CC(C3)C1)C2)c1c(Cl)cccc1Cl | -30.9
50 | COc1cc(NC(=O)c2ccco2)c(OC)cc1NC(=O)CSc1ncc(-c2ccc(F)cc2)[nH]1 | 5.59
51 | O=C(O)CCC(=O)Nc1ccc2c(c1)Cc1cc(NC(=O)CCC(=O)O)ccc1-2 | 5.93
52 | CN(C)S(=O)(=O)c1cccc(NC(=O)COC(=O)c2cc(=O)c3ccccc3o2)c1 | 13.9
53 | Cc1noc(C)c1COc1ccc(C(=O)OCC(=O)NC23CC4CC(CC(C4)C2)C3)cc1 | 13.6
54 | O=C(NCC(c1cccs1)N1CCOCC1)C1CCN(S(=O)(=O)c2c(Cl)cccc2Cl)CC1 (centres unmarked) | 8.2
55 | CCCNC(=O)c1onc(CSc2ccc(F)cc2)c1C(=O)NCCC | 14.4
56 | Cc1ccc(-c2nnc(SCC(=O)N/N=C/c3ccccc3C(=O)O)n2C2CCCCC2)cc1 | 12.5
57 | Cc1nn(C)cc1/C=N/NC(=O)c1ccc2c(c1)OCO2 | 5.98
58 | Cn1c(O)c(/C=C/C=Nc2ccccc2)c(=O)n(C)c1=O | 11.9
59 | O=C(NCCN1CCN(Cc2ccccc2)CC1)C1CC(=O)N(C2CCCC2)C1 (centres unmarked) | 2.39
60 | CC(=O)Nc1cc(C(=O)N(C)Cc2ccco2)ccc1Sc1ccc(Cl)cc1 | -4.85
61 | CC(=O)OC1(c2ccc(C)cc2)CN2CCC1c1ccccc12.Cl (centres unmarked) | 14.3
62 | CC(=O)c1sccc1NC(=O)CC(C)(C)CC(=O)O | 6.35
63 | Cc1ccccc1CSCc1ccc(C(=O)NCCCN2CCOCC2)o1 | -11.9
64 | O=C(NCCc1c[nH]c2ccccc12)Nc1cccc2ccccc12 | 9.7
65 | COc1ccc(C(O)P(=O)(OC(C)C)OC(C)C)cc1OC (centres unmarked) | 14.2
66 | COCCn1c(=O)[nH]c2cc(C(=O)N3CCN(c4ccccc4)CC3)ccc2c1=O | 9.08
67 | CCN(CC)CC(=O)Nc1ccc([N+](=O)[O-])cc1 | -2.18
68 | O=C(Nc1ccon1)c1nc[nH]c1C(=O)N1CCc2ccccc2C1 | 24.3
69 | O=C(CN1CCN(c2ccccn2)CC1)Nc1ccc(OCc2ccccc2)cc1 | 0.172

Row | Structure (SMILES) | hERG current change (%, negative = inhibition) at 1uM [%]
70 | O=C(CN(c1ccccc1)S(=O)(=O)c1ccc(F)cc1)N1CCCCCC1 | -8
71 | CCC[C@H]1COCCS(=O)(=O)N1Cc1ccccc1 | 5.11
72 | Cc1cccc(NS(=O)(=O)c2ccc(C(=O)NCC(c3ccco3)N(C)C)cc2)c1C (centres unmarked) | 3.63
73 | Fc1ccc(NC(=S)N2CCSC2c2cccs2)cc1 (centres unmarked) | 6.81
74 | COc1ccc(CCN2C(=O)CC(Cc3ccc(C)cc3)C2=O)cc1OC (centres unmarked) | 5.53
75 | CC(C)(C)c1cc(CN2CCCC(O)C2)c(O)c(C(C)(C)C)c1 (centres unmarked) | -7.24
76 | N#Cc1ccccc1CN1C(=O)NC2(CCCCCC2)C1=O | 14.3
77 | O=C(Nc1c(-c2cccs2)nc2ccccn12)c1ccc2ccccc2c1 | 12.4
78 | COc1ccc(C(=O)N[C@H](C(=O)NCC2CCCCC2)C(C)C)cc1 | 14.2
79 | O=C(NNc1cccc(Cl)n1)Nc1ccccc1F | 9.11
80 | Cc1cccc(N2CCN(C(=O)c3ccc4nc(N5CCCCC5)sc4c3)CC2)c1C | 8.76
81 | CC1(C)CC(=O)N(c2ccccc2)C1(C)O (centres unmarked) | 1.25
82 | COc1ccc(Oc2ccccc2C=O)cc1 | 6.5
83 | Cc1nn2c(N)c(-c3ccccc3)cnc2c1-c1ccc(Cl)cc1 | 14.3
84 | Cc1cc(C)n(-c2nc3c(c(=O)n(C)c(=O)n3C)n2C)n1 | 10.8
85 | COc1cc(C(=O)Nc2cccc(C)n2)ccc1OCC(=O)N1CCOCC1 | 3.9
86 | COC(=O)c1sc(N/N=C/c2ccc(C(C)C)cc2)nc1C | 11.9
87 | Cc1ccccc1Nc1nnc(SCC(=O)Nc2ccccc2[N+](=O)[O-])s1 | 12.1
88 | CCS(=O)(=O)N1Cc2ccccc2CC1C(=O)Nc1ccc(OC)cc1OC (centres unmarked) | 6.08
89 | CCOC(=O)C1=C(c2ccccc2)NC(SCC(=O)Nc2ccccc2C)=C(C#N)C1c1ccco1 (centres unmarked) | -0.374
